A collection of fitness landscapes (doi:10.1016/j.celrep.2020.107928)
The full ranking holds about 81,000 sequences; the median of “one-hybrid fitness for binding NBS DNA” is about -0.1, and the highest 2% start at about 0.36. The list shows a part of the results.

B1: Caulobacter ParB omega fusion; a variant is named by its letters at X, in order, B8GW30 (parent)
chain: MESVVVGEPGMSEGRRGLGRGLSALLGEVDAAPAQAPGEQLGGSREAPIEILQRNPDQPRRTFREEDLEDLSNSIREKGVLQPILVRPSPDTAGEYQIVAGERAWRAAQRAGLKTVPIMVRELDDLAVLEIGIIENVQRADLNVLEEALSYKVLMEKFERTQENIAQTIGKSXSHVANXMRLLXLPDEVQSYLVSGELTAXHARAIAAAADPVALAKQIIEGGLSVRETEALARKAPNLSAGKSKGGRPPRVKDTDTQALESDLSSVLGLDVSIDHRGSTGTLTITYATLEQLDDLCNRLTRGI

Variants of: B1
Test: one-hybrid fitness for binding NBS DNA (the Noc-binding site; scaled: cognate 1, non-cognate 0); higher = stronger binding
Details: with NBS DNA site
Method in brief: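 Caulobacter ParB libraries with four specificity codons randomised were screened by bacterial one-hybrid selection in the E. coli USO strain, using a HIS3 reporter whose site lies 19 bp from the promoter. Selection ran for 48 hours at 37°C on M9 lacking histidine, with 0.1 mM IPTG and 5 mM 3-AT. Plasmids were Illumina-sequenced before and after selection, three replicate libraries were pooled, and variants with under 10 reads were dropped. Fitness is the log change in each variant's read ratio to wild type, rescaled against the cognate and non-cognate sites.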

Row | Variant | one-hybrid fitness for binding NBS DNA
1 | GCND | ≤ 0.2
2 | RKQI | ≤ 0.2
3 | RNEF | ≤ 0.2
4 | RTFM | ≤ 0.2
5 | SNWV | ≤ 0.2
6 | EYAT | ≤ 0.2
7 | QWLC | ≤ 0.2
8 | QAIE | ≤ 0.2
9 | HIGN | ≤ 0.2
10 | VVNY | ≤ 0.2
11 | LCTF | ≤ 0.2
12 | TTGP | ≤ 0.2
13 | QEIR | ≤ 0.2
14 | PTKG | ≤ 0.2
15 | LLKV | ≤ 0.2
16 | QHTS | 0.372
17 | AITG | ≤ 0.2
18 | EHAM | ≤ 0.2
19 | VHLT | ≤ 0.2
20 | HMWA | ≤ 0.2
21 | GRWC | ≤ 0.2
22 | VAMK | ≤ 0.2
23 | EARA | ≤ 0.2
24 | CMTR | ≤ 0.2

Row | Variant | one-hybrid fitness for binding NBS DNA
25 | LMNT | ≤ 0.2
26 | TLWI | ≤ 0.2
27 | DYRV | ≤ 0.2
28 | HHYG | ≤ 0.2
29 | FNPY | ≤ 0.2
30 | AMVE | ≤ 0.2
31 | VSFY | ≤ 0.2
32 | CRWT | ≤ 0.2
33 | LAVA | ≤ 0.2
34 | VLPR | ≤ 0.2
35 | HESD | ≤ 0.2
36 | FCTA | ≤ 0.2
37 | QQRW | 0.373
38 | TDRV | ≤ 0.2
39 | AWYC | ≤ 0.2
40 | RVLK | ≤ 0.2
41 | CIGG | ≤ 0.2
42 | VNIS | ≤ 0.2
43 | TYTC | ≤ 0.2
44 | RDAM | ≤ 0.2
45 | IFKS | ≤ 0.2
46 | WSAE | ≤ 0.2
47 | DCGV | ≤ 0.2
48 | DVRN | ≤ 0.2

Row | Variant | one-hybrid fitness for binding NBS DNA
49 | EAWA | ≤ 0.2
50 | VPTQ | ≤ 0.2
51 | CETG | ≤ 0.2
52 | HEGS | ≤ 0.2
53 | QAHH | ≤ 0.2
54 | GNST | ≤ 0.2
55 | CFYC | ≤ 0.2
56 | NMKT | ≤ 0.2
57 | DNPS | ≤ 0.2
58 | GEGR | ≤ 0.2
59 | HITV | ≤ 0.2
60 | PTVH | ≤ 0.2
61 | RGGG | ≤ 0.2
62 | KRDH | ≤ 0.2
63 | LSNE | ≤ 0.2
64 | PNDR | ≤ 0.2
65 | HHFC | ≤ 0.2
66 | RAFC | ≤ 0.2
67 | MGNR | ≤ 0.2
68 | RCYD | ≤ 0.2
69 | QIYS | 0.27
70 | ANLQ | ≤ 0.2
71 | TEAC | ≤ 0.2
72 | SMGG | ≤ 0.2

Row | Variant | one-hybrid fitness for binding NBS DNA
73 | LCPV | ≤ 0.2
74 | LVMQ | ≤ 0.2
75 | SQDS | ≤ 0.2
76 | LHGV | ≤ 0.2
77 | PDFW | ≤ 0.2
78 | QGLA | ≤ 0.2
79 | ESNT | ≤ 0.2
80 | NQQF | ≤ 0.2
81 | RRQN | 0.322
82 | YPRG | ≤ 0.2
83 | YAIT | ≤ 0.2
84 | ETQK | ≤ 0.2
85 | TELI | ≤ 0.2
86 | RHVK | ≤ 0.2
87 | PNPG | ≤ 0.2
88 | CERG | ≤ 0.2
89 | RATP | ≤ 0.2
90 | IERV | ≤ 0.2
91 | QYCQ | ≤ 0.2
92 | TKNN | ≤ 0.2
93 | FLDC | ≤ 0.2
94 | CPRL | ≤ 0.2
95 | VGFI | ≤ 0.2
96 | YTFV | ≤ 0.2

Row | Variant | one-hybrid fitness for binding NBS DNA
97 | PYYG | ≤ 0.2
98 | AWLC | ≤ 0.2
99 | RSSR | 0.437
100 | SRVD | ≤ 0.2
101 | GPKW | ≤ 0.2
102 | RYMM | ≤ 0.2
103 | QGEW | ≤ 0.2
104 | QHST | 0.446
105 | LKAS | ≤ 0.2
106 | MKNS | ≤ 0.2
107 | LNDR | ≤ 0.2
108 | WTVV | ≤ 0.2
109 | FTTP | ≤ 0.2
110 | EQMS | ≤ 0.2
111 | WPMR | ≤ 0.2
112 | QRSA | 0.566
113 | STGR | ≤ 0.2
114 | DPQL | ≤ 0.2
115 | SMSM | ≤ 0.2
116 | QINN | ≤ 0.2
117 | CSRN | ≤ 0.2
118 | ARGT | ≤ 0.2
119 | PIMF | ≤ 0.2
120 | GARG | ≤ 0.2

Row | Variant | one-hybrid fitness for binding NBS DNA
121 | KSRN | ≤ 0.2
122 | FAIC | ≤ 0.2
123 | VMML | ≤ 0.2
124 | WIRG | ≤ 0.2
125 | LFAV | ≤ 0.2
126 | SWKT | ≤ 0.2
127 | NVRL | ≤ 0.2
128 | QCPE | ≤ 0.2
129 | NTAS | ≤ 0.2
130 | QYCL | ≤ 0.2
131 | FAYD | ≤ 0.2
132 | LHRG | ≤ 0.2
133 | YADW | ≤ 0.2
134 | HMGR | ≤ 0.2
135 | LGKC | ≤ 0.2
136 | NRTC | ≤ 0.2
137 | HVLA | ≤ 0.2
138 | HSSV | ≤ 0.2
139 | SLGC | ≤ 0.2
140 | GIHS | ≤ 0.2
141 | STWD | ≤ 0.2
142 | ARQF | ≤ 0.2
143 | WKKT | ≤ 0.2
144 | GGAM | ≤ 0.2

Row | Variant | one-hybrid fitness for binding NBS DNA
145 | PMLS | ≤ 0.2
146 | ELRM | ≤ 0.2
147 | AVVE | ≤ 0.2
148 | PFDR | ≤ 0.2
149 | APRN | ≤ 0.2
150 | EGMG | ≤ 0.2
151 | QSHI | ≤ 0.2
152 | AETP | ≤ 0.2
153 | WSTC | ≤ 0.2
154 | HGVE | ≤ 0.2
155 | VRAV | ≤ 0.2
156 | LAID | ≤ 0.2
157 | NGLY | ≤ 0.2
158 | WLWS | ≤ 0.2
159 | PGMR | ≤ 0.2
160 | HDVR | ≤ 0.2
161 | SVET | ≤ 0.2
162 | CRTE | ≤ 0.2
163 | QAQL | ≤ 0.2
164 | FYPR | ≤ 0.2
165 | YLAM | ≤ 0.2
166 | PHMW | ≤ 0.2
167 | PKPS | ≤ 0.2
168 | NKDL | ≤ 0.2

Row | Variant | one-hybrid fitness for binding NBS DNA
169 | YFVC | ≤ 0.2
170 | YPSR | ≤ 0.2
171 | CLFI | ≤ 0.2
172 | RIED | ≤ 0.2
173 | YQES | ≤ 0.2
174 | FRAK | ≤ 0.2
175 | DTCR | ≤ 0.2
176 | HRVV | ≤ 0.2
177 | YKSN | ≤ 0.2
178 | GLQM | ≤ 0.2
179 | CCQV | ≤ 0.2
180 | PVCV | ≤ 0.2
181 | SGTA | ≤ 0.2
182 | SPTH | ≤ 0.2
183 | SDYL | ≤ 0.2
184 | CFVL | ≤ 0.2
185 | RIGN | ≤ 0.2
186 | TYTS | ≤ 0.2
187 | WYNT | ≤ 0.2
188 | HVPV | ≤ 0.2
189 | CKAP | ≤ 0.2
190 | METY | ≤ 0.2
191 | AYDG | ≤ 0.2
192 | WAKR | ≤ 0.2

Row | Variant | one-hybrid fitness for binding NBS DNA
193 | LNGY | ≤ 0.2
194 | WRQP | ≤ 0.2
195 | LNDL | ≤ 0.2
196 | MSCS | ≤ 0.2
197 | WCKS | ≤ 0.2
198 | IPTC | ≤ 0.2
199 | CRLV | ≤ 0.2
200 | DIEC | ≤ 0.2
201 | EYER | ≤ 0.2
202 | WNNT | ≤ 0.2
203 | LKTQ | ≤ 0.2
204 | RPRI | ≤ 0.2
205 | GWTG | ≤ 0.2
206 | EFTG | ≤ 0.2
207 | RVEH | ≤ 0.2
208 | LGCA | ≤ 0.2
209 | WWLW | ≤ 0.2
210 | QATM | ≤ 0.2
211 | TVSC | ≤ 0.2
212 | PRTR | ≤ 0.2
213 | RLYN | ≤ 0.2
214 | HMYT | ≤ 0.2
215 | FICL | ≤ 0.2
216 | RNRA | ≤ 0.2

Row | Variant | one-hybrid fitness for binding NBS DNA
217 | KYAC | ≤ 0.2
218 | SALH | ≤ 0.2
219 | GYAG | ≤ 0.2
220 | MTPT | ≤ 0.2
221 | DTKE | ≤ 0.2
222 | RTNF | ≤ 0.2
223 | AIRL | ≤ 0.2
224 | KFSL | ≤ 0.2
225 | MGFL | ≤ 0.2
226 | VNTR | ≤ 0.2
227 | VYGL | ≤ 0.2
228 | TNPC | ≤ 0.2
229 | TYSA | ≤ 0.2
230 | CIQG | ≤ 0.2
231 | RWFR | ≤ 0.2
232 | GATN | ≤ 0.2
233 | PSRD | ≤ 0.2
234 | ALEG | ≤ 0.2
235 | HLQY | ≤ 0.2
236 | KYKK | ≤ 0.2
237 | LTHK | ≤ 0.2
238 | QKQG | ≤ 0.2
239 | RAVP | ≤ 0.2
240 | GLKS | ≤ 0.2

Row | Variant | one-hybrid fitness for binding NBS DNA
241 | PRMP | ≤ 0.2
242 | HTKA | ≤ 0.2
243 | SKFS | ≤ 0.2
244 | RYSV | ≤ 0.2
245 | AVKC | ≤ 0.2
246 | FIVE | ≤ 0.2
247 | CKST | ≤ 0.2
248 | TSTC | ≤ 0.2
249 | EMHY | ≤ 0.2
250 | HNLL | ≤ 0.2
251 | PPPM | ≤ 0.2
252 | LYYC | ≤ 0.2
253 | GQSM | ≤ 0.2
254 | RENV | ≤ 0.2
255 | RIKM | ≤ 0.2
256 | TNQR | ≤ 0.2
257 | FYTR | ≤ 0.2
258 | PQVA | ≤ 0.2
259 | VMSA | ≤ 0.2
260 | VTCS | ≤ 0.2
261 | LCAW | ≤ 0.2
262 | SMVP | ≤ 0.2
263 | CNNV | ≤ 0.2
264 | LINF | ≤ 0.2

Row | Variant | one-hybrid fitness for binding NBS DNA
265 | VDMS | ≤ 0.2
266 | PHRW | ≤ 0.2
267 | SLKA | ≤ 0.2
268 | THIF | ≤ 0.2
269 | TTYV | ≤ 0.2
270 | CPIS | ≤ 0.2
271 | RSMH | ≤ 0.2
272 | QRSF | 0.262
273 | NQTF | ≤ 0.2
274 | VYHA | ≤ 0.2
275 | RLCR | 0.412
276 | GMYA | ≤ 0.2
277 | QQGF | ≤ 0.2
278 | LKFS | ≤ 0.2
279 | PNTF | ≤ 0.2
280 | LIHA | ≤ 0.2
281 | KSQI | ≤ 0.2
282 | AEHS | ≤ 0.2
283 | TFRD | ≤ 0.2
284 | DKPC | ≤ 0.2
285 | NEQS | ≤ 0.2
286 | QGDT | ≤ 0.2
287 | LDIS | ≤ 0.2
288 | GDDT | ≤ 0.2

Row | Variant | one-hybrid fitness for binding NBS DNA
289 | KGYF | ≤ 0.2
290 | RCEC | ≤ 0.2
291 | CVAG | ≤ 0.2
292 | VLVR | ≤ 0.2
293 | HAWG | ≤ 0.2
294 | ESVP | ≤ 0.2
295 | DTHV | ≤ 0.2
296 | APCC | ≤ 0.2
297 | LMIQ | ≤ 0.2
298 | ERGA | ≤ 0.2
299 | LSDV | ≤ 0.2
300 | QDTT | ≤ 0.2
301 | LKWV | ≤ 0.2
302 | LMQG | ≤ 0.2
303 | HILM | ≤ 0.2
304 | RYVF | ≤ 0.2
305 | NIFS | ≤ 0.2
306 | RYMC | ≤ 0.2
